B1: CPEB3 Ribozyme (parent)
chain: UAACAGGGGGCCACAGCAGAAGCGUUCACGUCGCAGCCCCUGUCAGAUUCUGGUGAAUCUGCGAAUUCUGCUGUAUAUCUC

Read counts are not given, so values of variants with three or more changes are uncertain.

In the data set the parent is B1. In words: self-cleavage, relative activity (ratio to wild type); higher = more cleavage; in vitro, sequencing. The gist of the method:
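Relative activity was defined as the cleaved/total read fraction for a variant divided by the same fraction for the unmutated ribozyme. CPEB3 self-cleaving ribozyme libraries were made by rounds of error-prone PCR, barcoded, and transcribed in vitro with T7 RNA polymerase for 5 hours at 37°C, and cleavage ran through transcription plus a 15 min DNase I step before EDTA. Illumina sequencing of template-switched reverse transcripts gave the reads, and DNA sequencing mapped the barcodes. Averages come from three batches, using variants with at least 5 reads.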
For the variant UAACAGGGGGCCACAGCAGAAGCGUUCGCGUCGCAGCCCCUGUCAGAAUCUGGUGAAACUGCGAAUUCUGCUGUAUAUCUC [A28G U48A U58A], the self-cleavage stood at 0.17. The same measure for UAACAGGGGGCCACAGCAGAAGCGUUCGCGUCGCAGCCCCUGUCAGAUUCUGGUGAAUCUGCGAAUUCUGCUGUAAAUCUU [A28G U76A C81U]: 0.93. The same measure for UAACAGGGGGCCACAGCAGAAGCGUUCGCGUCGCAGCCCCUGUCAGAUUCUGGAGAAUCUGCGAAUUCUGCUGCAUAUCUC [A28G U54A U74C]: 1.19; for UAACAGGGGGCCACAGCAGAAGCGUUCGCGUCGCAGCCCCUGACAGAUCCUGGUGAAUCCGCGAAUUCUGCUAUACAUCUC [A28G U43A U49C U60C G73A U76C]: 0.06; for UAACAGGGGGCCACAGCAGAAGCGUUCUCGUCGCGGCCCCUGUCAGAUUCUGGUGGAUCUGCGAGUUCUGCUGUAUUUCUC [A28U A35G A56G A65G A77U]: 1.04. The same measure for UAACAGGGGGCCACAGCAGAAGCGUUCUCGUCGCAGCCCCUGUCAGAUUCUGGUGUAUCUGCGAAUUCUGCUGUAAAUCUC [A28U A56U U76A]: 0.42. For the variant UAACAGGGGGCCACAGCAGAAGCGUUCGCGUCGCAGCCCCUGUCAGACUCCGGUGUAUCUGCGAAUUCUGCUGUAUAUCUC [A28G U48C U51C A56U], the self-cleavage came out at 0.17. Turning to UAACAGGGGGCCACAGCAGAAGCGUUCUCGUCGCUGCCCCUGUCAGAUUCUGGCGAACCUGCGAAUUCUGCUGUAUAUCUC [A28U A35U U54C U58C], the self-cleavage is 0.09. For the variant UAACAGGGGGCCACAGCAGAAGCGUUCGCGUCGCAGCCCCCGUCAGAUUCUGGUGAAUCUGCGAACUCAGCUGUAUAUCUC [A28G U41C U66C U69A], the self-cleavage was found to be 0.11. For the variant UAACAGGGGGCCACAGCAGAAGCGUUCUCGUCGCAGCUCCUGUCAGAUUAUGGUGAAUCUGCGAAUUCAGCUGAAUAUCUC [A28U C38U C50A U69A U74A], the self-cleavage was found to be 0.06. The same measure for UAACAGGGGGCCACAGCAGAAGCGUUCUCGUCGUAGCCCCUGUCAGAUUCUGGUGGAUCUGCGAAUACUGCCGUAUAUCUC [A28U C34U A56G U67A U72C]: 0.16; for UAACAGGGGGCCACAGCAGAAGCGUUCUCGUCGCAGCACCUGUCUGAUUCUGGUGAAUCUGCGAAUUCUGCUGUAUAUCUC [A28U C38A A45U]: 0.1. The same measure for UAACAGGGGGCCACAGCAGAAGCGUUCGCGUCGCAGCCCCUGUCAGAUUCUGGUGAAUCCGCGAAUUCUGCGGUAUACCUC [A28G U60C U72G U78C]: 0.17.

For UAACAGGGGGCCACAGCAGAAGCGUUCGCGUCGCAGCCCCCGUCAGAUUCUGAUGAAUCUGCGAAUUCUGCUGUAUGUCUC [A28G U41C G53A A77G], the self-cleavage was 0.89. The same measure for UAACAGGGGGCCACAGCAGAAGCGUUCGCGUCGCAGCCCCUGCCAGAUUCUGGUGAACCUGCGAAUUCUGCUGUAUUUCUC [A28G U43C U58C A77U]: 0.17. The same measure for UAACAGGGGGCCACAGCAGAAGCGUUCUCGUCGCAGCCCUUGUCAGAUUCUGGUGAAUCCGCGAAUUCUGCUGUAUAUCUC [A28U C40U U60C]: 0.3; for UAACAGGGGGCCACAGCAGAAGCGUUCUCGUCGCAGCCCCUGUCAGAUUCUGGUGAUUCUGCGAAUUCCGCUGUAUAUCUC [A28U A57U U69C]: 0.19. The same measure for UAACAGGGGGCCACAGCAGAAGCGUUCGCGUCGCAGCCCCUGUCAGAUUCCGGUGAAUCUGCGAAUUCAGCUGUAUAUCUC [A28G U51C U69A]: 0.42; for UAACAGGGGGCCACAGCAGAAGCGUUCGCGUCGCAGCCCCUGUCAGAUUCUGGUGAAUCUGCGAACUCUGCUGUAUAGCUC [A28G U66C U78G]: 0; for UAACAGGGGGCCACAGCAGAAGCGUUCGCGUCGCAGCCCCUGUCAGACUCUGGUGAAACUGCGGAUUCUGCUGUAUAUCUC [A28G U48C U58A A64G]: 0.05. For the variant UAACAGGGGGCCACAGCAGAAGCGUUCGCGUCGCAGCCCCUGCCAGAUUCAGGUGAAUCUGCGAAUUCUGCUGUAUAUCUC [A28G U43C U51A], the self-cleavage came out at 0.38.

As for UAACAGGGGGCCACAGCAGAAGCGUUCGCGUCGCAGCCCCUGUCAGACUCUGGUGGAUCUGCGAAUUCUGCUGUAUAUCUC [A28G U48C A56G], the self-cleavage came out at 0.14. The same measure for UAACAGGGGGCCACAGCAGAAGCGUUCUCGUCGCGGGCCCUGUCAGAUUCUGGUGAAUCUGCGAAUUCUCCUGUAUAUCUC [A28U A35G C37G G70C]: 0.09. The same measure for UAACAGGGGGCCACAGCAGAAGCGUUCUCGUAGCAGCCCCCGUCAGAUUCUGGUGAAUCUGCGAAUUCUGCCGUAUAUCUC [A28U C32A U41C U72C]: 0.09. The same measure for UAACAGGGGGCCACAGCAGAAGCGUUCGCGUCGCAGCCCCUGUCAGAUUCUGGCGAAUCUGCGAAUUCUGCGGUAUAUCUC [A28G U54C U72G]: 0.48. On to UAACAGGGGGCCACAGCAGAAGCGUUCGCGUCGCAGCCCCUGUCAGAUUCCCGUGGACCUGCGAAUUCUGCUGUAUAUCUC [A28G U51C G52C A56G U58C], for which the self-cleavage is 0.26. The same measure for UAACAGGGGGCCACAGCAGAAGCGUUCUCGUCCCAGCCCCUGUCAGCUUCUGGUGAAUCUGCGAAUUCUGCUGUAUAUCUC [A28U G33C A47C]: 0.15. Turning to UAACAGGGGGCCACAGCAGAAGCGUUCGCGUCGCAGCCCCGGUCAGAUUCUGGUGAAUCUGCGAGUUCUGCUGUAUAUCUC [A28G U41G A65G], the self-cleavage was determined as 0.23. As for UAACAGGGGGCCACAGCAGAAGCGUUCUCGUCGCAGCCCCUGUCAGAUUCUGGUGAGUCCGCGAAUUCCGCUGUAUAUCUC [A28U A57G U60C U69C], the self-cleavage was 0.23. With UAACAGGGGGCCACAGCAGAAGCGUUCGCGUCGCAGCCCCUGUCAGACUCUGGUGAAUCAGCGAAUUCUGCUGUAUAUCUC [A28G U48C U60A], the self-cleavage came to 0.12. The same measure for UAACAGGGGGCCACAGCAGAAGCGUUCUCGUCGCAGCCCCUGUCGGAUUCUGGUGAAUCCGCGAAUUCUGCUGUAUAACUC [A28U A45G U60C U78A]: 0.9. Take UAACAGGGGGCCACAGCAGAAGCGUUCGCGUCGCAGCCCCUGUCAGAAUCUGGUGAGUCUGCGUAUUCUGCUGUACAUCUC [A28G U48A A57G A64U U76C]: the self-cleavage was found to be 0.05.

With UAACAGGGGGCCACAGCAGAAGCGUUCUCGUCGCAGCCCUUGUCAGAUUCAGGUGAAUCUGCGAAUUCUGCUGUAUAUCUC [A28U C40U U51A], the self-cleavage was determined as 0.67. The same measure for UAACAGGGGGCCACAGCAGAAGCGUUCGCGUCGCAGCCCCUGUCAGAUCCUGGUGAAUCUGCGAAUUCUGCUGUAUGUCUC [A28G U49C A77G]: 0.22.

The values above are taken from the RNAGym collection of RNA variant scans (doi:10.1093/nar/gkz1192).
